In PubChem BioAssay AID463173 (ICCB-Longwood Screening Facility, Harvard Medical School, 2010) one finds survival data, which are given here for 89 compounds.

The structures appear in SMILES notation. Among all 52,000 compounds or so, about 4,300 (8.3%) were called active. No stated cut-off is given here; in the data, active means survival mostly below about 52% (no sharp cut-off); inactive means mostly above about 56%. Some of the results follow.

The experiment relates to DeltatarO mutant. Kind of experiment: growth inhibition of S. aureus wild type versus tarO mutant, primary screen, teichoic acid synthesis inhibitors, RN4220, OD600 (AID 463173). The settings on record: OD600, 18 h, stronger effect = lower value, screened at 18.75 µg/mL (by protocol).
With `Cc1nn2c(-c3cccc(NC(=O)c4ccccc4)c3)nnc2c2ccccc12`, the survival is inactive: 86%. Next, `O=S(=O)(Nc1nc2n(n1)C(c1ccc(F)cc1)C=C(c1ccccc1)N2)c1ccccc1` (centres undefined): inactive: 73%. For `Cc1ccc2ncc(C(=O)Nc3ccc(F)cc3F)c(=O)n2c1` the value was inactive: 99%; for `COC(=O)c1ccc2c(=O)n(CCCCCC(=O)NCc3ccc(Cl)cc3)c(=O)[nH]c2c1`, inactive: 74%; for `CCOC(=O)c1nn(-c2ccccc2)c(=O)c(C#N)c1C`, inactive: 97%.

Regarding `CCc1ccc(CNC(=O)c2ccc(NC(=O)N3CC(C)Sc4ccccc43)cc2)cc1` (centres undefined), the survival is inactive: 64%. For `Cc1cc(C)c2c(=O)cc(C(=O)Nc3ccccc3C(F)(F)F)oc2c1` the value was inactive: 63%. In the case of `CC(=O)c1ccc(N2CCN(c3ccc(NC(=O)c4ccc(F)cc4)cc3C(=O)O)CC2)cc1`, the survival is inactive: 55%. Consider `Cc1cc(NC(=O)CCS(=O)(=O)c2cc3c4c(c2)CCN4C(=O)CC3)ccc1Br`, for which the survival is inactive: 120%. For `CC(C)(C)c1ccc(C(=O)NCC(c2cccs2)S(=O)(=O)c2ccccc2)cc1` (centres undefined) the value was inactive: 105%; for `CCc1nnc(SCc2cc(C)ccc2C)c2cc3sc(C)cc3n12`, inactive: 86%. Consider `COc1cccc(NC(=O)CSC2=Nc3ccccc3C3=NC(CC(=O)NC4CCCCC4)C(=O)N23)c1` (centres undefined), for which the survival is inactive: 95%. Next, `CCn1cnc2sc3c(c2c1=O)CCCC3`: inactive: 101%; `CCOC(=O)c1c(C)[nH]c(C)c1S(=O)(=O)N1CCC(C(=O)N2CCN(c3ccccc3F)CC2)CC1`: inactive: 89%. Take `Cc1ccc(-n2c(SCc3cccc(F)c3)nc3[nH]ncc3c2=O)cc1C`: the survival is inactive: 97%.

Consider `Cc1ccc2c(c1)-c1cc(C)nn1C(c1cc(Br)ccc1O)N2` (centres undefined), for which the survival was inactive: 152%. For `COc1cc(OC)c(OC)cc1/C=C/c1nc2cc3ccccc3cc2c(=O)n1-c1ccc(F)cc1F` the value was inactive: 99%; for `COc1ccc(C2CC(=O)c3cc(-c4nc(-c5ccc(Cl)cc5)c(C)s4)c(=O)[nH]c3C2)cc1` (centres undefined), active: 70%; for `COc1ccc(C2c3c(n(C)c4ccccc34)C(=O)N2CC(=O)Nc2ccc(C)c(Cl)c2)cc1` (centres undefined), inactive: 86%. In the case of `CC(=O)Nc1cc(OC(C)=O)c2nonc2c1OC(C)=O`, the survival is active: 29%. For `Cc1ccc(NC(=O)Cn2cc(S(=O)(=O)c3ccc(C)cc3)c(=O)c3cc4c(cc32)OCO4)cc1` the value was inactive: 58%. Turning to `Cc1ccc(-c2nc(SCCOc3ccccc3C)n3[nH]c(=O)cc3n2)cc1`, the survival is inactive: 117%. Next, `CC(C)OCCCNC(=O)c1ccc2c(c1)NC(=O)c1ccccc1S2`: inactive: 97%; `CN(Cc1ccccc1)S(=O)(=O)c1ccc(NC(=O)c2ccco2)cc1`: inactive: 85%. Take `COC(=O)c1ccccc1NC(=O)CSc1nc2ccccc2nc1Cc1ccccc1OC`: the survival was inactive: 89%.

As to `CCOC(=O)c1c(-c2ccc(Br)cc2)csc1NC(=O)c1ccc(F)cc1`, the survival was inactive: 63%. For `O=C(CCS(=O)(=O)c1cc(Br)cc2c1N(C(=O)C1CC1)CC2)NCc1ccc(Cl)cc1` the value was inactive: 74%; for `CN(C(=O)c1cc2nc(-c3ccco3)cc(C(F)(F)F)n2n1)c1ccc(OC(F)(F)Cl)cc1`, inactive: 167%. Next, `CCn1c(=O)sc2cc(NS(=O)(=O)c3ccc(F)c(C)c3)ccc21`: inactive: 65%. For the compound `Cc1ccc(CSc2cn(CC(=O)N3CCCC3)c3ccccc23)cc1`, the survival is inactive: 54%. For `O=C(Nc1cc(-c2nc3ccccc3o2)ccc1Cl)c1ccc(N2CCCCC2)c([N+](=O)[O-])c1` the value was inactive: 67%; for `Cc1cccc(CN2CCC(CNC(=O)c3c(C)oc4ncnc(N5CCCCC5)c34)CC2)c1`, inactive: 77%. For `CCN(C(=O)C1CCC(CNS(=O)(=O)c2cccc3nsnc23)CC1)c1ccc(C)c(C)c1` (centres undefined) the value was inactive: 71%; for `Nc1nnc(SCc2ccccc2)s1`, active: 49%; for `O=C(c1cccs1)N1CCCc2ccccc21`, inactive: 82%. For `CCOC(=O)C1CCN(c2nc3c(S(=O)(=O)c4ccccc4)nnn3c3ccsc23)CC1` the value was inactive: 71%; for `CCc1ccccc1N(CC)C(=O)c1c(C)oc2ncnc(N3CCOCC3)c12`, inactive: 96%; for `Cc1ccccc1C(=O)Nc1ccc(OCc2cc(=O)n3cccc(C)c3n2)cc1`, inactive: 88%. As for `O=c1c2oc3ccccc3c2n(Cc2ccc(Cl)cc2)c(=O)n1Cc1ccco1`, the survival is inactive: 77%. For `O=C1COc2cc(S(=O)(=O)NCc3ccco3)c(Cl)cc2N1` the value was inactive: 98%; for `CC1=C(c2ccc(C)c(C)c2)S(=O)(=O)N=C1N1CCC(C(=O)N2CCC(C(N)=O)CC2)CC1`, active: -2%. For `Fc1ccc(-c2nn(-c3ccccc3Cl)c3c2cnc2ccccc23)cc1` the value was inactive: 89%; for `Cc1c(N)c(C)c(N)c(C)c1N`, inactive: 96%; for `COc1ccc(-n2nc(C(=O)N3CCN(c4cccc(C)c4C)CC3)c3c4ccccc4n(C)c3c2=O)cc1Cl`, inactive: 81%. Next, `C#CCn1cc(/C=C(/C#N)C(=O)Nc2ccccc2)c2ccccc21`: inactive: 54%; `COc1cccc(CNC(=O)Cn2ncn3nc(-c4cccs4)cc3c2=O)c1OC`: inactive: 64%; `CCC(Oc1ccccc1)C(=O)Nc1cc(-c2cccc(C)c2)nn1-c1ccccc1` (centres undefined): inactive: 83%. As for `COc1ccc(-n2c(C)c(C(C)=O)c3cc(OC(=O)COc4ccccc4)ccc32)cc1`, the survival was inactive: 61%. For `Cc1cccc(-c2cc3nc(C)c(C)c(N4CCC5(CC4)OCCO5)n3n2)c1` the value was inactive: 88%; for `N#Cc1cn(CC(=O)N2CCCC2)c2ccccc12`, inactive: 79%. `Cc1cc(-c2ccc(C)c(S(=O)(=O)NCc3cccc(Br)c3)c2)on1`: the survival is inactive: 97%. Next, `CCCS(=O)(=O)N1CC(=O)N(c2cccc(Cl)c2C)C(C)(C(=O)NC2CCCC2)C1` (centres undefined): inactive: 99%; `Cc1cc(C)cc(OCC(=O)N(Cc2cccs2)c2ccc(Cl)cc2)c1`: inactive: 61%; `CCCCCn1c(CCNC(=O)c2ccc(F)cc2)nc2ccccc21`: inactive: 68%. As to `CCOCCCNC(=O)c1cnc2sc(N3CCCCC3)nn2c1=O`, the survival is inactive: 75%.

Take `COc1ccccc1NC(=O)c1oc2ccccc2c1NC(=O)c1cccc(OC)c1OC`: the survival was inactive: 72%. Next, `CC(C)Nc1nc(Cl)nc(NNC(=O)C(C)Oc2ccccc2)n1` (centres undefined): inactive: 93%; `O=C(c1ccc2c(c1)N(Cc1ccc(F)cc1)C(=O)c1ccccc1S2(=O)=O)N1CCCC1`: inactive: 80%; `CCC(=O)N1CCCc2cc(S(=O)(=O)N3CCC(C(=O)NC4CCCCC4)CC3)ccc21`: inactive: 116%. Consider `COc1ccccc1Cn1c(CNS(=O)(=O)c2ccc(C(C)C)cc2)nc2cccnc21`, for which the survival is inactive: 101%. For `COc1ccc(CNC(=O)c2nc(SCc3ccccc3F)ncc2Cl)cc1` the value was inactive: 81%. For `CC(NC(=O)c1ccc2c(c1)CCN2S(=O)(=O)c1ccccc1)c1ccccc1` (centres undefined) the value was active: 37%. For `COc1ccc(N2CCN(CCCNC(=O)c3cc(Nc4ccc(OC)cc4OC)nc4ccccc34)CC2)cc1` the value was inactive: 87%. For the compound `O=C(CCS(=O)(=O)c1ccccc1)N(Cc1cccnc1)c1nc2ccc(Cl)cc2s1`, the survival was inactive: 92%. Next, `CCCN1Cc2cccc(C(=O)Nc3ccc(C(C)=O)cc3)c2C1=O`: inactive: 88%.

Turning to `Cc1ccccc1Nc1c(-c2cc(Br)ccc2F)nc2ccccn12`, the survival is inactive: 154%. Consider `CCOC(=O)C1CCC(CN(Cc2ccccc2)S(=O)(=O)c2ccc(Br)cc2)CC1` (centres undefined), for which the survival was inactive: 83%. Next, `COc1cc(NC(=O)CCS(=O)(=O)c2ccc3c(c2)CC(=O)N3C)cc(OC)c1OC`: inactive: 97%. Next, `COc1ccc(/C=C/c2nc(C#N)c(NCc3ccc(F)cc3)o2)cc1OC`: inactive: 87%. For `CCOc1ccc(-c2cc(C(=O)Oc3ccc(C#N)cc3)no2)cc1` the value was inactive: 54%; for `CCNC(=S)N1CCC(C(=O)c2ccc3c(c2)OCCO3)CC1`, active: 58%.

In the case of `CCc1ccc(-n2c(=O)c3c4c(sc3n(CC(=O)N3CCCCC3CC)c2=O)CCC4)cc1` (centres undefined), the survival is inactive: 85%. Next, `Cc1c(CCC(=O)NCCc2ccc(Cl)cc2)c(=O)oc2c(C)c(O)ccc12`: inactive: 69%; `Cc1c(CNC2CCCCC2)c(C(=O)O)c(C)n1Cc1cccc(Cl)c1`: inactive: 85%. `CCOc1ccccc1NC(=O)c1nc(SC(C)C)ncc1Cl`: the survival is inactive: 113%.

In the case of `CCc1ccc(NC(=O)CN2C(=O)C(c3ccc(Cl)cc3)=NC23CCCCC3)cc1`, the survival was inactive: 84%. Next, `Cc1ccc(NC(=O)Cn2c(=O)n(Cc3nc(C)no3)c(=O)c3ccccc32)c(Cl)c1`: inactive: 99%; `Cc1cccc(C)c1OCCCn1c(CCNC(=O)C2CCCCC2)nc2ccccc21`: active: 1%. Next, `O=C(NC1CC2CCC(C1)N2Cc1nnnn1Cc1ccco1)NC12CC3CC(CC(C3)C1)C2` (centres undefined): inactive: 55%; `Cc1c(C(=O)Nc2cccc(Cl)c2)sc2nc3n(c(=O)c12)N=C(c1cccc(Br)c1)CS3`: inactive: 73%; `COc1cccc(C(=O)c2c(N)c(-c3nc(-c4ccccc4)cs3)c3ccccn23)c1`: inactive: 82%. Next, `Cc1cc(C)nc(SCC(=O)Nc2ccc(N3CCOCC3)cc2)n1`: inactive: 82%; `Cc1cccc(-n2c(=O)c3c(c4cc(C)ccc4n3C)n(CC(=O)N3CCCC3)c2=O)c1`: inactive: 98%; `O=C(CN1C(=O)COc2ccccc21)NCCc1ccc(Cl)cc1`: inactive: 94%.

`N#CC(C#N)C(CC(=O)c1cccs1)c1ccccc1` (centres undefined): the survival is inactive: 99%. For `CCOc1ccc(N(CC)S(=O)(=O)N2CCCC(C(=O)Nc3ccc(C(C)=O)cc3)C2)cc1` (centres undefined) the value was inactive: 82%. Next, `CC(C(=O)c1ccccc1)n1cnc2ccccc2c1=O` (centres undefined): inactive: 104%; `CCCc1ncc(C(O)c2ccccc2OC)n1C` (centres undefined): inactive: 85%.

`CCCS(=O)(=O)c1nc(S(=O)(=O)c2ccc(C)cc2)c(N(C)Cc2ccccc2)s1`: the survival was inactive: 86%.
